Test results published in patent US8044100B2, “Methods and compositions for treating amyloid-related diseases” (Bellus Health Inc., priority 2004, dated 2011).
Counter-ions that a name gives are not always drawn. Some of these results come from one statement about several compounds together.

Biological target: Aβ40 (Homo sapiens, UniProt P05067)
Experiment: Mass spectrometry (MS) assay for binding to soluble Aβ40
Settings: 150 μM test compound and 30 μM solubilized Aβ40, pH 7.4

Chain of Aβ40 (P05067 672-711 limits assumed): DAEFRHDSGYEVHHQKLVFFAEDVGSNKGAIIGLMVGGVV

Row | SMILES | Aβ binding (%)
1 | C[C@H](NCCCS(=O)(=O)O)c1ccc2ccccc2c1 (racemic) [OP, 3-{[(1SR)-1-(2-naphthyl)ethyl]amino}-1-propanesulfonic acid] | 40-69%
2 | C=CCC(CC=C)(CCN)S(=O)(=O)O [Compound N2, 4-(2-aminoethyl)hepta-1,6-diene-4-sulfonic acid] | 40-69%
3 | NCC(Cc1ccccc1)CS(=O)(=O)O (centres unmarked) [Compound N4, 3-amino-2-benzyl-1-propanesulfonic acid] | ≧70%
4 | CC(N)CCS(=O)(=O)O (centres unmarked) [Compound N6, 3-amino-1-butanesulfonic acid] | 15-39%
5 | O=S(=O)(O)CCCNCC1CCCCCC1 [Compound N7, 3-cycloheptylmethyl-1-propansulfonic acid] | 40-69%
6 | O=S(=O)(O)CCCN[C@H](CO)CSCc1ccccc1 [Compound N8, 3-[(R)-(3-benzylthio-1-hydroxy-2-propyl)amino]-1-propansulfonic acid] | 40-69%
7 | NCC(CS(=O)(=O)O)c1ccc(Cl)cc1 (centres unmarked) [Compound N12] | ≧70%
8 | CC(C)CC(N)CCS(=O)(=O)O (centres unmarked) [Compound N17, 3-amino-5-methyl-1-hexanesulfonic acid] | ≧70%
9 | O=S(=O)(O)CCCNCCSCc1ccccc1 [Compound N18, 3-(2-benzylthio-1-ethylamino)-1-propansulfonic acid] | 40-69%
10 | CC1=C(C)CC(S(=O)(=O)O)C(CNC23CC4CC(CC(C4)C2)C3)C1 (centres unmarked) [Compound N19, 6-(1-adamantylamino)methyl-3,4-dimethylcyclohex-3-ene-1-sulfonic acid] | 40-69%
11 | O=S(=O)(O)/C=C\CNC12CC3CC(CC(C3)C1)C2 [Compound N21] | 15-39%
12 | NC/C=C\S(=O)(=O)O [Compound N22, (1Z)-3-aminoprop-1-ene-1-sulfonic acid] | 15-39%
13 | NCC[C@@H]([C@H](O)c1ccccc1)S(=O)(=O)O [Compound N23, anti-4-amino-1-hydroxy-1-phenyl-2-butanesulfonic acid, trifluoroacetic acid salt] | 40-69%
14 | NCC[C@H]([C@H](O)c1ccccc1)S(=O)(=O)O [Compound N24, syn-4-amino-1-hydroxy-1-phenyl-2-butanesulfonic acid, trifluoroacetic acid salt] | ≧70%
15 | NCC1C2C=CC(CC2)C1S(=O)(=O)O (centres unmarked) [Compound N32, 3-(aminomethyl)bicyclo[2.2.2]oct-5-ene-2-sulfonic acid] | 40-69%
16 | NC1(CCS(=O)(=O)O)CCCCC1 [Compound N35, 2-(1-aminocycohexyl)-1-ethanesulfonic acid] | 40-69%
17 | CC1CC(CN)C(S(=O)(=O)O)CC1C (centres unmarked) [Compound N36, 3-(aminomethyl)-4,5-dimethyl-1-cycloheanesulfonic acid] | ≧70%
18 | CC(C)(C)C(CNC12CC3CC(CC(C3)C1)C2)CS(=O)(=O)O (centres unmarked) [Compound N40, 2-[(1-Adamantylamino)methyl]-3,3-dimethylbutane-1-sulfonic acid] | 40-69%
19 | CC(C)(C)C(CNCc1ccccc1)CS(=O)(=O)O (centres unmarked) [Compound N42, 2-[(benzylamino)methyl]-3,3-dimethylbutane-1-sulfonic acid] | ≧70%
20 | COc1ccc(OC)c2c1CCC2NCCCS(=O)(=O)O (centres unmarked) [Compound N51, 3-[(4,7-dimethoxyindan-1-yl)amino]propane-1-sulfonic acid] | 40-69%

The remaining lines, values ahead:

Row | Aβ binding (%) | SMILES
21 | 15-39% | CCCC[C@@H](C)NCCCS(=O)(=O)O (racemic) [PM, 3-{[(1SR)-1-methylpentyl]amino}-1-propanesulfonic acid]
22 | ≧70% | CCCCCCC[C@H](C)NCCCS(=O)(=O)O [Compound N1]
23 | 15-39% | COC(=O)C(C)(C)NCCCS(=O)(=O)O [Compound N3, 3-(1,1-dimethyl-2-methoxy-2-oxoethyl)amino-1-propanesulfonic acid]
24 | 40-69% | CC1=C(C)CC(S(=O)(=O)O)C(CNC(C)(C)C)C1 (centres unmarked) [Compound N13, 6-[(tert-butylamino)methyl]-3,4-dimethylcyclohex-3-ene-1-sulfonic acid]
25 | 15-39% | CC(C)(O)C(CCN)S(=O)(=O)O (centres unmarked) [Compound N15, 1-amino-4-hydroxy-4-methyl-3-pentanesulfonic acid]
26 | 40-69% | CC(C)(C)NC/C=C\S(=O)(=O)O [Compound N20, (Z)-3-(tert-butylamino)prop-1-ene-1-sulfonic acid]
27 | 40-69% | CC(C)(N)CCS(=O)(=O)O [Compound N34, 3-amino-3-methyl-1-butanesulfonic acid]
28 | 40-69% | CC(C)(C)NCC(CS(=O)(=O)O)C(C)(C)C (centres unmarked) [Compound N38, 2-[(t-Butylamino)methyl]-3,3-dimethylbutane-1-sulfonic acid]
29 | 40-69% | CNCC(CS(=O)(=O)O)C(C)(C)C (centres unmarked) [Compound N41, 3,3-Dimethyl-2-[(methylamino)methyl]butane-1-sulfonic acid]

Same assay, conditions: @ 200 μM test compound and 20 μM solubilized Aβ40, pH 7.4; class limits; compounds tested at 200 or 400 μM

Row | SMILES | Aβ binding (%)
30 | NC(=O)C(NCCCS(=O)(=O)O)c1ccccc1 (stereo in doubt) [GP, 3-{[(1S)-2-amino-2-oxo-1-phenylethyl]amino}-1-propanesulfonic acid] | 20-39% @ 400 μM
31 | O=C(NCCCCS(=O)(=O)[O-])OCc1ccccc1.[Na+] [AD] | 20-44% @ 200 μM
32 | O=C(NCCCS(=O)(=O)O)NC(c1ccccc1)c1ccccc1 [AF] | 20-44% @ 200 μM
33 | O=S(=O)(O)CCCNCc1ccc2c(c1)OCO2 [AW] | 30-69% @ 200 μM
34 | COc1ccc(CNCCCS(=O)(=O)O)cc1OC [AX] | 30-69% @ 200 μM
35 | COc1cc(CNCCCS(=O)(=O)O)cc(OC)c1OC [AY] | 60-100% @ 200 μM
36 | COc1cccc(CNCCCS(=O)(=O)O)c1OC [AZ] | 30-69% @ 200 μM
37 | COc1cc(CNCCCS(=O)(=O)O)cc(OC)c1 [BA] | 30-69% @ 200 μM
38 | COc1ccc(CNCCCS(=O)(=O)O)c(OC)c1 [BB] | 60-100% @ 200 μM
39 | O=S(=O)(O)CCCNCc1ccc(O)c(O)c1 [BC] | 20-44% @ 200 μM
40 | O=S(=O)(O)CCCNC12CC3CC(CC(C3)C1)C2 [BW] | 60-100% @ 200 μM
41 | O=S(=O)(O)CCCNC1CC2CCC1C2 (centres unmarked) [BY] | 60-100% @ 200 μM
42 | O=S(=O)(O)CCCNC1C2CC3CC(C2)CC1C3 (centres unmarked) [BZ] | 60-100% @ 200 μM
43 | O=S(=O)(O)CCCN1CC=CCC1c1ccccc1 (centres unmarked) [B] | 20-44% @ 200 μM
44 | O=S(=O)(O)CCCNC1CCCCCC1 [CK] | 60-100% @ 200 μM
45 | CC12CC3CC(C)(C1)CC(NCCCS(=O)(=O)O)(C3)C2 [CY] | 60-100% @ 200 μM
46 | O=S(=O)([O-])CCC[n+]1ccc(CCCc2ccccc2)cc1 [C] | 20-44% @ 200 μM
47 | O=S(=O)(O)CCSc1nnnn1-c1ccc(O)cc1 [DE] | 20-39% @ 400 μM

The remaining lines, values ahead:

Row | Aβ binding (%) | SMILES
48 | 60-100% @ 200 μM | CC(C)(C)NCCCS(=O)(=O)O [BX, 3-(t-butyl)amino-1-propanesulfonic acid]
49 | 30-69% @ 200 μM | NCCCCCS(=O)(=O)O [CC]
50 | 30-69% @ 200 μM | NCCCCCCS(=O)(=O)O [CD]
51 | 60-100% @ 200 μM | CC(C)CNCCCS(=O)(=O)O [CE]
52 | 60-100% @ 200 μM | CC(C)NCCCS(=O)(=O)O [CG]
53 | 60-100% @ 200 μM | CC(C)CCNCCCS(=O)(=O)O [CH]
54 | 60-100% @ 200 μM | O=S(=O)(O)CCCNC1CC1 [CI]
55 | 60-100% @ 200 μM | O=S(=O)(O)CCCNC1CCCC1 [CJ]
56 | 60-100% @ 200 μM | CCNCCCS(=O)(=O)O [CV]
57 | 60-100% @ 200 μM | CCC(CC)NCCCS(=O)(=O)O [DD]
58 | 20-44% @ 200 μM | CCC(C)(C)NCCCS(=O)(=O)O [DG]
59 | 30-69% @ 200 μM | CC(C)(CO)NCCCS(=O)(=O)O [DH]
60 | 20-39% @ 400 μM | CC(C)(NCCCS(=O)(=O)O)C(=O)O [DI]
61 | 20-39% @ 400 μM | C[C@H]1CCCC[C@H]1NCCCS(=O)(=O)O [DJ]
62 | 60-100% @ 200 μM | CC1CCCC(NCCCS(=O)(=O)O)C1C (centres unmarked) [DK]
63 | 20-44% @ 200 μM | CC(C)(C)CNCCCS(=O)(=O)O [DL]
64 | 30-69% @ 200 μM | CC(C)(NCCCS(=O)(=O)O)c1ccccc1 [DM]
65 | 30-69% @ 200 μM | COc1ccc([C@H](C)NCCCS(=O)(=O)O)cc1 [DN]

Same assay, conditions: @ 400 μM test compound and 40 μM solubilized Aβ40, pH 7.4; class limits; compounds tested at 200 or 400 μM

Row | SMILES | Aβ binding (%)
66 | NC(=O)C(NCCCS(=O)(=O)O)c1ccccc1 (stereo in doubt) [GP, 3-{[(1S)-2-amino-2-oxo-1-phenylethyl]amino}-1-propanesulfonic acid] | 20-39% @ 400 μM
67 | O=C(NCCCCS(=O)(=O)[O-])OCc1ccccc1.[Na+] [AD] | 45-59% @ 400 μM;
68 | O=C(NCCCS(=O)(=O)O)NC(c1ccccc1)c1ccccc1 [AF] | 45-59% @ 400 μM;
69 | O=S(=O)(O)CCCNCc1ccc2c(c1)OCO2 [AW] | 70-89% @ 400 μM;
70 | COc1ccc(CNCCCS(=O)(=O)O)cc1OC [AX] | 70-89% @ 400 μM;
71 | COc1cc(CNCCCS(=O)(=O)O)cc(OC)c1OC [AY] | 90-100% @ 400 μM;
72 | COc1cccc(CNCCCS(=O)(=O)O)c1OC [AZ] | 70-89% @ 400 μM;
73 | COc1cc(CNCCCS(=O)(=O)O)cc(OC)c1 [BA] | 70-89% @ 400 μM;
74 | COc1ccc(CNCCCS(=O)(=O)O)c(OC)c1 [BB] | 90-100% @ 400 μM;
75 | O=S(=O)(O)CCCNCc1ccc(O)c(O)c1 [BC] | 45-59% @ 400 μM;
76 | O=S(=O)(O)CCCNC12CC3CC(CC(C3)C1)C2 [BW] | 90-100% @ 400 μM;
77 | O=S(=O)(O)CCCNC1CC2CCC1C2 (centres unmarked) [BY] | 90-100% @ 400 μM;
78 | O=S(=O)(O)CCCNC1C2CC3CC(C2)CC1C3 (centres unmarked) [BZ] | 90-100% @ 400 μM;
79 | O=S(=O)(O)CCCN1CC=CCC1c1ccccc1 (centres unmarked) [B] | 45-59% @ 400 μM;
80 | O=S(=O)(O)CCCNC1CCCCCC1 [CK] | 90-100% @ 400 μM;
81 | CC12CC3CC(C)(C1)CC(NCCCS(=O)(=O)O)(C3)C2 [CY] | 90-100% @ 400 μM;
82 | O=S(=O)([O-])CCC[n+]1ccc(CCCc2ccccc2)cc1 [C] | 45-59% @ 400 μM;
83 | O=S(=O)(O)CCSc1nnnn1-c1ccc(O)cc1 [DE] | 20-39% @ 400 μM

Second part, the compound after the results:

Row | Aβ binding (%) | SMILES
84 | 90-100% @ 400 μM; | CC(C)(C)NCCCS(=O)(=O)O [BX, 3-(t-butyl)amino-1-propanesulfonic acid]
85 | 70-89% @ 400 μM; | NCCCCCS(=O)(=O)O [CC]
86 | 70-89% @ 400 μM; | NCCCCCCS(=O)(=O)O [CD]
87 | 90-100% @ 400 μM; | CC(C)CNCCCS(=O)(=O)O [CE]
88 | 90-100% @ 400 μM; | CC(C)NCCCS(=O)(=O)O [CG]
89 | 90-100% @ 400 μM; | CC(C)CCNCCCS(=O)(=O)O [CH]
90 | 90-100% @ 400 μM; | O=S(=O)(O)CCCNC1CC1 [CI]
91 | 90-100% @ 400 μM; | O=S(=O)(O)CCCNC1CCCC1 [CJ]
92 | 90-100% @ 400 μM; | CCNCCCS(=O)(=O)O [CV]
93 | 90-100% @ 400 μM; | CCC(CC)NCCCS(=O)(=O)O [DD]
94 | 45-59% @ 400 μM; | CCC(C)(C)NCCCS(=O)(=O)O [DG]
95 | 70-89% @ 400 μM; | CC(C)(CO)NCCCS(=O)(=O)O [DH]
96 | 20-39% @ 400 μM | CC(C)(NCCCS(=O)(=O)O)C(=O)O [DI]
97 | 20-39% @ 400 μM | C[C@H]1CCCC[C@H]1NCCCS(=O)(=O)O [DJ]
98 | 90-100% @ 400 μM; | CC1CCCC(NCCCS(=O)(=O)O)C1C (centres unmarked) [DK]
99 | 45-59% @ 400 μM; | CC(C)(C)CNCCCS(=O)(=O)O [DL]
100 | 70-89% @ 400 μM; | CC(C)(NCCCS(=O)(=O)O)c1ccccc1 [DM]
101 | 70-89% @ 400 μM; | COc1ccc([C@H](C)NCCCS(=O)(=O)O)cc1 [DN]
